Experimental data as given in the supplement of paper PMC10126150.
Sequences with one replicate were seen in a single cluster, so their values are uncertain.

tested on: ATP; assay: switch fluorescence ratio, 500 uM ATP over buffer (Cy3 cluster intensity, sum of 5 cycles each) (fold (ratio)); higher = stronger signal-on switching upon ATP binding; sequences stand for … in TCGTCGGCAGCGTCAGATGTGTATAAGAGACAGTTTTTTTTTTTTTTTTTTTTTTTTT…TC; details: aptamer strand: ATP DNA aptamer (quencher-CACCTGGGGGAGTATTGCGGAGGAAGG + anchor), 100 nM annealed; ATP concentration: 500 uM; one replicate
In short: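 Values give the fluorescence ratio for each switch-domain sequence, averaged from per-cluster ratios of summed target-cycle to summed buffer-cycle Cy3 intensity. The Cy3-labelled switching-strand clusters sat on a modified Illumina MiSeq flow-cell, were annealed to 100 nM quencher-labelled ATP aptamer, and were imaged in selection buffer, then after 15 min with 500 uM ATP at 22 °C. Five cycles ran with NaOH stripping and re-annealing between them, and clusters outside 100-1000 RFU were excluded.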
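Also: ATP exposure 15 min at 22 °C before imaging.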

Sequence | switch fluorescence ratio
TGGAGGGTGC | 1.07
TGGAGGTGC | 1.05
TGGAGTAAAC | 1.22
TGGAGTGACC | 0.987
TGGAGTTCCT | 0.971
TGGAGTTTGT | 0.976
TGGATAACCG | 0.976
TGGATAAGG | 0.965
TGGATGACAT | 0.997
TGGATGATA | 1.03
TGGATGGGTT | 0.958
TGGATTACAT | 0.936
TGGATTAGCA | 1.06
TGGCACAAAT | 0.994
TGGCAGTTGA | 1.03
TGGCCAAGG | 0.962
TGGCCACAAG | 0.977
TGGCCCAGAT | 0.994
TGGCCCGAGA | 1.02
TGGCCCGCAT | 2
TGGCCCGGGT | 1.07
TGGCCGGGTC | 1.08
TGGCCTGCTT | 0.974
TGGCGCCCGC | 1.02
TGGCGGTTCG | 1.02
TGGCGTTCGG | 0.967

Sequence | switch fluorescence ratio
TGGCTAATTT | 1.03
TGGCTATCTT | 0.993
TGGCTCCCAC | 1.32
TGGCTCGCCA | 1.22
TGGCTGCACC | 1.05
TGGCTGGGGA | 1.02
TGGCTGTCAG | 0.993
TGGCTTAAT | 0.991
TGGCTTACA | 1
TGGCTTATGG | 0.948
TGGCTTTAAG | 0.939
TGGCTTTCTT | 1.05
TGGCTTTTGA | 1.01
TGGGACAGGT | 1.04
TGGGACATA | 1.02
TGGGACGGC | 1.05
TGGGAGTCTT | 1.02
TGGGATATGA | 0.973
TGGGATCATA | 1.08
TGGGCAAGGG | 0.978
TGGGCACTGG | 1.06
TGGGCAGCT | 0.985
TGGGCAGCTC | 1.01
TGGGCATTAC | 4.88
TGGGCCACGC | 0.976
TGGGCCATCG | 1.02

Sequence | switch fluorescence ratio
TGGGCGCGAG | 1.01
TGGGCTCAGG | 1.22
TGGGCTTGAG | 1.23
TGGGGAACCG | 1.03
TGGGGAGTTC | 1.02
TGGGGCTGTT | 1.04
TGGGGGTTC | 1.07
TGGGGTGTTA | 0.989
TGGGTAGACT | 1.01
TGGGTCGCAA | 1.12
TGGGTCGTCA | 0.969
TGGGTCTGAG | 0.991
TGGGTGGTAG | 0.975
TGGGTGTCAT | 1.02
TGGGTGTGCC | 0.98
TGGGTTAGGA | 1.04
TGGGTTGCTT | 1.02
TGGTAAAATA | 1.07
TGGTAAGGAA | 1.01
TGGTAAGGCA | 1.03
TGGTAATCCG | 1
TGGTACAAG | 1
TGGTACCCTG | 0.973
TGGTACTCTA | 1.03
TGGTACTTCC | 1.67
TGGTAGCGT | 1.02

Sequence | switch fluorescence ratio
TGGTAGGAAT | 1.06
TGGTAGTTCC | 1.04
TGGTATACCG | 0.979
TGGTATGCT | 0.962
TGGTATGTCC | 1.35
TGGTATTAAG | 1.03
TGGTATTCTA | 0.992
TGGTATTGGA | 1.03
TGGTCAATCT | 1.07
TGGTCACCGG | 1.03
TGGTCATTAT | 1.01
TGGTCCTTTG | 1.02
TGGTCGATCG | 0.926
TGGTCGCTGT | 1.06
TGGTCGTAGG | 0.966
TGGTCTAGTT | 1.01
TGGTGAAATA | 1.03
TGGTGATAAC | 1
TGGTGCGCTG | 0.956
TGGTGCTTCC | 1.73
TGGTGGTGCT | 1.02
TGGTGTAAAG | 0.989
TGGTGTCCTG | 0.978
TGGTGTCGGA | 1.13
TGGTGTGGTA | 0.989
TGGTGTGTTG | 0.862

Sequence | switch fluorescence ratio
TGGTGTTGTA | 0.996
TGGTTACA | 0.982
TGGTTACTCT | 0.993
TGGTTCCTCG | 1.07
TGGTTCGACG | 1.06
TGGTTG | 0.979
TGGTTGCTTT | 1.06
TGGTTGGG | 0.99
TGGTTGGGC | 0.957
TGGTTGGTAC | 1.05
TGGTTTACCT | 0.959
TGGTTTCTAT | 1.01
TGGTTTCTCC | 1.23
TGGTTTCTTA | 0.962
TGTAAAGACA | 1.04
TGTAAGGATA | 1.01
TGTAAGGGGC | 0.969
TGTAATCCAA | 1.02
TGTAATGGGA | 0.971
TGTACCGGGT | 0.999
TGTACGTTGC | 1.04
TGTACTTTTC | 0.988
TGTAGAAGTG | 1.12
TGTAGACAA | 1.39
TGTAGCCATG | 0.997
TGTATAGAGA | 1.01

Sequence | switch fluorescence ratio
TGTATATGTA | 1.01
TGTATCAAGA | 1
TGTATCATCT | 1.01
TGTATCCCAT | 1.26
TGTATCCTAG | 0.944
TGTATGCCGA | 1
TGTATGCGTG | 0.965
TGTATGGAAC | 0.999
TGTATGGTGC | 0.957
TGTATGTAGG | 1.01
TGTATGTGTG | 0.916
TGTATTAAA | 1.05
TGTATTGTC | 1.02
TGTATTTAGG | 0.988
TGTCAAGCGT | 0.997
TGTCACTGAG | 1.09
TGTCATATC | 1.06
TGTCATTAGT | 0.989
TGTCATTTGC | 0.964
TGTCCAGTTC | 1.08
TGTCCGATGT | 1.03
TGTCCTCGGT | 1.04
TGTCCTTTTA | 1
TGTCGTGATG | 1.04
TGTCTAAACG | 0.987
TGTCTCGTCC | 0.991

Sequence | switch fluorescence ratio
TGTCTCTACA | 1.01
TGTCTTTGCA | 1
TGTGAACCCG | 0.983
TGTGAACGAT | 1.02
TGTGAACTCT | 1.02
TGTGAAGGCA | 0.969
TGTGACGTTT | 1.03
TGTGAGAATC | 1.03
TGTGAGTCGC | 0.997
TGTGAGTTA | 1.03
TGTGATCTGC | 1.01
TGTGCAGAAG | 0.963
TGTGCCCCAT | 1.01
TGTGCCGGCG | 0.962
TGTGCGAGGG | 0.991
TGTGCGGGGA | 1.08
TGTGCTCATG | 1.03
TGTGGAATCC | 0.994
TGTGGCAAGG | 1.02
TGTGGCAGGG | 0.989
TGTGGCCGAA | 0.999
TGTGGCGTCA | 1.04
TGTGGGCGGC | 1.03
TGTGGGGTCC | 1.04
TGTGGTAGAG | 0.947
TGTGGTCATG | 1.01

Sequence | switch fluorescence ratio
TGTGGTCGCT | 1
TGTGGTTGCT | 1.02
TGTGTCGTGC | 0.996
TGTGTTATCC | 1
TGTGTTC | 1.03
TGTGTTCGAT | 1.03
TGTTAAGGCG | 1.12
TGTTAATTGC | 0.986
TGTTACATCT | 1.01
TGTTACCGGT | 0.965
TGTTAGCTGC | 1.05
TGTTAGTCGG | 1
TGTTAGTGAT | 1.01
TGTTATACGA | 1.05
TGTTATCTAC | 1.04
TGTTCACGGA | 1.01
TGTTCAGGTT | 3.37
TGTTCATGGA | 0.981
TGTTCGAGTC | 1.04
